Reference: the supplement of paper PMC3334620
Whole data set: some 33,000 sequences, median “E-score (-0.5 to 0.5)” near -0.036, cut for the highest 2% near 0.37. The list shows a part of the results.

What follows are sequences tested against T1, Yer064c (UniProt P40041) (assay: PBM E-score (8-mer binding enrichment) (E-score (-0.5 to 0.5)); higher = stronger / more preferred TF binding; most listed sequences are background and not binding sites). Conditions: protein concentration: 200 nM; construct: GST-full length.
T1 sequence: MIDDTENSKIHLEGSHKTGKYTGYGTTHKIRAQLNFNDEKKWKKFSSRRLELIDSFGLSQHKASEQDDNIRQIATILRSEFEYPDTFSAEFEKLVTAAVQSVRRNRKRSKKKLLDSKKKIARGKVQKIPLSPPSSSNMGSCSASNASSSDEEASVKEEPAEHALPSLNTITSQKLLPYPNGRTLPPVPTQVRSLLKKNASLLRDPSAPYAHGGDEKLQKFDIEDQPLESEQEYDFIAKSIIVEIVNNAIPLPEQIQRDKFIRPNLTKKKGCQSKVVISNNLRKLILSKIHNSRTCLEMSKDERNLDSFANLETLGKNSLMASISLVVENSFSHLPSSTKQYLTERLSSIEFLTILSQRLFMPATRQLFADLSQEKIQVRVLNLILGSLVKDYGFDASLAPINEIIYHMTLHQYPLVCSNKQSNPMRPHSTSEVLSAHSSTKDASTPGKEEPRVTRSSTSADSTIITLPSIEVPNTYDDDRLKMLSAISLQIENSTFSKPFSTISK
Summary of the method: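 Using PURExpress in vitro transcription/translation, GST-tagged yeast transcription factors were made in full-length or DNA-binding-domain form. These were applied at about 100-200 nM to double-stranded universal all-10-mer Agilent arrays, and bound protein was detected with fluorescent anti-GST. Scans were normalised with masliner before the Universal PBM Analysis Suite assigned E-scores to ungapped eight-base words pooled with their reverse complements.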

Compared with CGATTTGC, ATACCTGA is higher in “PBM E-score” value: -0.0666 for the first, 0.135 for the second.

Compared with CTCATAAA, CCTAGACA is lower in “PBM E-score” value: 0.328 for the first, -0.0478 for the second.

Compared with AGAGCTCA, ACCTCATA is higher in “PBM E-score” value: -0.0599 for the first, 0.0846 for the second.

First: ATGTGTAG
Second: GCGATCGC
The “PBM E-score” value of the first is higher: 0.18 for the first, -0.34 for the second.

Going from GGAGGTAA to CTCGTGTA, the “PBM E-score” value rises from -0.041 to 0.079.

Compared with GGCTTGAC, ACAATGAA is higher in “PBM E-score” value: 0.0998 for the first, 0.144 for the second.

First: AGCCGGTA
Second: CGCTGTGA
The “PBM E-score” value of the first is lower: -0.232 for the first, 0.102 for the second.

Compared with CCCCCCAG, GATTACAA is higher in “PBM E-score” value: -0.222 for the first, 0.258 for the second.

First: GGGACAGA
Second: ATTGGTCG
The “PBM E-score” value of the first is higher: 0.0714 for the first, -0.166 for the second.

Compared with TCAAGCGA, CGCGACGC is lower in “PBM E-score” value: 0.118 for the first, -0.154 for the second.

Compared with CGTACTCA, CCGGCGCA is lower in “PBM E-score” value: 0.335 for the first, -0.0981 for the second.

First: CAAGACAC
Second: CTTGCAAG
The “PBM E-score” value of the first is higher: -0.00685 for the first, -0.0521 for the second.

First: ATAGCGTA
Second: CTGACGAC
The “PBM E-score” value of the first is lower: -0.0811 for the first, 0.229 for the second.

First: ATATGTTA
Second: TACCCTGA
The “PBM E-score” value of the first is lower: -0.258 for the first, 0.146 for the second.

Compared with ACAGCATC, AATGAGGA is higher in “PBM E-score” value: -0.0879 for the first, -0.00162 for the second.

Going from CCAATAGC to CTGGACAG, the “PBM E-score” value rises from -0.252 to 0.0136.

Going from CACACCTC to ACGTTCCC, the “PBM E-score” value falls from -0.0423 to -0.338.

Compared with ATTAATTG, AACTTGTG is lower in “PBM E-score” value: 0.238 for the first, -0.0303 for the second.

First: AGAATCTA
Second: CGTCCAAA
The “PBM E-score” value of the first is higher: 0.0859 for the first, 0.0317 for the second.

Compared with ATGGGAAG, AAACGATA is higher in “PBM E-score” value: -0.195 for the first, 0.157 for the second.

First: ATTTTAGG
Second: AGAGTGAG
The “PBM E-score” value of the first is lower: -0.0322 for the first, 0.129 for the second.

Going from CACCGACA to AAAAGTAG, the “PBM E-score” value rises from -0.0748 to 0.0768.

Going from CGGAGGAC to AACGGGTA, the “PBM E-score” value rises from -0.0531 to 0.105.

First: ACTTGTCA
Second: AGCAAGAC
The “PBM E-score” value of the first is lower: -0.0746 for the first, -0.0037 for the second.

Compared with GTGCCCGA, AAGTACTG is higher in “PBM E-score” value: -0.0755 for the first, 0.202 for the second.

First: ACACGCCG
Second: AAACACAA
The “PBM E-score” value of the first is lower: -0.0377 for the first, 0.0917 for the second.

Compared with ACATCCCG, CTTGCGTA is higher in “PBM E-score” value: -0.109 for the first, 0.0895 for the second.

First: AGACGCGA
Second: AGATCGCG
The “PBM E-score” value of the first is lower: 0.0337 for the first, 0.076 for the second.

Compared with GCAGAAAC, AAGTTACG is higher in “PBM E-score” value: -0.0754 for the first, -0.0147 for the second.

Going from GACACGCA to ACTAAAAG, the “PBM E-score” value rises from -0.104 to 0.245.

First: GCTAGATA
Second: AAGCTGAG
The “PBM E-score” value of the first is lower: -0.0249 for the first, 0.144 for the second.

Compared with TATAGTCA, GTATGGTA is lower in “PBM E-score” value: 0.467 for the first, 0.0984 for the second.

Compared with CCAGACTC, CTAAGAGA is lower in “PBM E-score” value: 0.206 for the first, 0.0493 for the second.

First: CCCCTAGG
Second: CGAGAACC
The “PBM E-score” value of the first is lower: -0.073 for the first, 0.0116 for the second.

First: GACAGTAC
Second: GAGAGCAC
The “PBM E-score” value of the first is higher: 0.0542 for the first, -0.0429 for the second.

First: CTTAGTTC
Second: ACCGTTCT
The “PBM E-score” value of the first is higher: 0.0883 for the first, -0.152 for the second.

Compared with GAATCTAC, GAGTGCAA is lower in “PBM E-score” value: 0.0943 for the first, 0.06 for the second.

First: AAGACGGC
Second: TCAAAGGA
The “PBM E-score” value of the first is lower: -0.291 for the first, 0.153 for the second.

First: ATGTTATG
Second: CGCAATGC
The “PBM E-score” value of the first is higher: 0.0503 for the first, -0.205 for the second.

Compared with ACCACAGT, GTAGATAC is lower in “PBM E-score” value: 0.0774 for the first, -0.203 for the second.

Going from CACCACTA to CAGGACCC, the “PBM E-score” value falls from 0.153 to -0.208.

First: CGCAGTGA
Second: ATTGTAAC
The “PBM E-score” value of the first is lower: 0.0233 for the first, 0.0714 for the second.

Going from ACATGACG to CCACGAAC, the “PBM E-score” value falls from -0.00033 to -0.0469.

Compared with GCAGGTCC, CCAGGACG is higher in “PBM E-score” value: -0.318 for the first, -0.259 for the second.

Compared with CAAAATTA, CTGCTTCA is lower in “PBM E-score” value: 0.174 for the first, -0.138 for the second.

Going from CCCCAAGG to CCAACTGA, the “PBM E-score” value rises from -0.213 to 0.144.

Compared with AAACATGT, CGTCATAA is lower in “PBM E-score” value: 0.0483 for the first, -0.00764 for the second.

Going from GTTGCACA to AAATCCAC, the “PBM E-score” value falls from 0.03 to -0.0693.

First: AGAGCTTG
Second: AGCCCGTA
The “PBM E-score” value of the first is higher: -0.121 for the first, -0.389 for the second.

Compared with ACGAAGAA, ATTCACAG is lower in “PBM E-score” value: 0.101 for the first, 0.078 for the second.

Going from ATGAGAGG to AACGTTTA, the “PBM E-score” value falls from -0.0459 to -0.183.

Going from GCCACTCC to GTACGATA, the “PBM E-score” value rises from -0.128 to 0.0242.

Compared with ACGGAATA, ACGCCGGA is lower in “PBM E-score” value: 0.102 for the first, -0.227 for the second.

Compared with AAACACCC, CCCGTCGC is higher in “PBM E-score” value: -0.0882 for the first, -0.0794 for the second.

First: ACTGCTAG
Second: AGACTTTG
The “PBM E-score” value of the first is lower: 0.0957 for the first, 0.0959 for the second.

Going from AGGGGGGG to CCAAGGAA, the “PBM E-score” value rises from -0.404 to -0.224.

First: AATTTTGA
Second: GATCAGTA
The “PBM E-score” value of the first is lower: 0.149 for the first, 0.201 for the second.

Going from AAAGTGTC to ACTATGGA, the “PBM E-score” value rises from -0.238 to 0.184.

Compared with GATAAAAA, CCCGTCGA is lower in “PBM E-score” value: 0.135 for the first, -0.0116 for the second.

Going from AGGCAAGC to ATATACTG, the “PBM E-score” value rises from -0.37 to 0.0631.

First: ATTTTTTC
Second: CGAGATTC
The “PBM E-score” value of the first is higher: 0.0658 for the first, 0.0578 for the second.

Compared with CATGATAC, CGTCCCTA is lower in “PBM E-score” value: 0.144 for the first, -0.243 for the second.

Compared with CTGGCTGC, CCTGGTCG is higher in “PBM E-score” value: -0.261 for the first, -0.0752 for the second.

Compared with CCAAGTAG, GGACAGCA is higher in “PBM E-score” value: -0.0719 for the first, 0.0107 for the second.

Compared with GAGACCCC, ATTTCCTG is higher in “PBM E-score” value: -0.159 for the first, 0.0946 for the second.

Compared with CTTTTGCC, CGAATGAA is higher in “PBM E-score” value: -0.142 for the first, -0.121 for the second.

First: AAATCTGC
Second: GCTCGCCC
The “PBM E-score” value of the first is higher: -0.0261 for the first, -0.0827 for the second.

Going from ATTGACAC to CGGAAGGA, the “PBM E-score” value falls from 0.0304 to -0.0792.

Going from ACTGATAC to ATGGTTCA, the “PBM E-score” value rises from -0.00937 to 0.341.

First: GATAACTA
Second: CTAGCATA
The “PBM E-score” value of the first is higher: 0.0463 for the first, 0.0257 for the second.

First: CTGAGCGC
Second: AAGGAGTC
The “PBM E-score” value of the first is lower: -0.195 for the first, 0.412 for the second.

Going from AACCCGTA to AAATGGTA, the “PBM E-score” value rises from -0.125 to -0.0673.

Compared with CTTGATCC, AAAATGCC is lower in “PBM E-score” value: 0.0127 for the first, -0.219 for the second.

Going from CCTTAGAA to GTTCACAA, the “PBM E-score” value rises from 0.00114 to 0.0949.

First: GCTGAGAC
Second: GATGCAAA
The “PBM E-score” value of the first is higher: 0.255 for the first, -0.235 for the second.

First: GCTAATGA
Second: AGGCCTAT
The “PBM E-score” value of the first is higher: 0.101 for the first, -0.191 for the second.

Compared with CGAGCTAA, GCTGGAGA is lower in “PBM E-score” value: -0.211 for the first, -0.291 for the second.

First: AACATCCT
Second: GATGCCGA
The “PBM E-score” value of the first is higher: -0.0435 for the first, -0.0727 for the second.

First: GGCGTGAC
Second: GTATAACA
The “PBM E-score” value of the first is higher: 0.153 for the first, -0.0202 for the second.

First: ACACTTGC
Second: GCCGGGTA
The “PBM E-score” value of the first is higher: 0.0323 for the first, -0.0861 for the second.

Going from AGACGGCT to CGTCCGGC, the “PBM E-score” value falls from -0.0763 to -0.238.

Going from AAACCGGT to CCGGTTCA, the “PBM E-score” value falls from -0.156 to -0.213.

Compared with GAGGTCAA, GCGGTCCA is lower in “PBM E-score” value: -0.00997 for the first, -0.257 for the second.

Compared with AGCGTAGG, GAAGAGGC is lower in “PBM E-score” value: -0.178 for the first, -0.256 for the second.

Going from ATCCAACC to CATCTAGA, the “PBM E-score” value rises from -0.134 to 0.0209.

Compared with ACTTTTAG, TGTTAACA is lower in “PBM E-score” value: 0.109 for the first, 0.0752 for the second.
